Results taken from PubChem BioAssay AID488969 (Vanderbilt High Throughput Screening Facility, 2010).
Over roughly 110,000 compounds, “z-score” has its median near -0.1; the highest 2% begin near 2. Some of the results follow. Calls of active or inactive are those of the source.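 The calls were made as follows: active = z-score in the third read window above 3 or below -3; inactive = the rest.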

Molecular target: Metabotropic glutamate receptor 8 (Rattus norvegicus) (UniProt P70579)
Assay: rat mGluR8 modulators via GIRK flux, primary screen, cell-based, thallium flux, HTS (AID 488969)
Conditions: HEK293 rat mGluR8, GIRK (G protein-gated inwardly rectifying potassium channel) thallium flux, FluoZin2; at 10 µM; stronger effect = higher value; submaximal glutamate (EC20) added with thallium

UniProt P70579, sequence (P70579 whole entry, looked up): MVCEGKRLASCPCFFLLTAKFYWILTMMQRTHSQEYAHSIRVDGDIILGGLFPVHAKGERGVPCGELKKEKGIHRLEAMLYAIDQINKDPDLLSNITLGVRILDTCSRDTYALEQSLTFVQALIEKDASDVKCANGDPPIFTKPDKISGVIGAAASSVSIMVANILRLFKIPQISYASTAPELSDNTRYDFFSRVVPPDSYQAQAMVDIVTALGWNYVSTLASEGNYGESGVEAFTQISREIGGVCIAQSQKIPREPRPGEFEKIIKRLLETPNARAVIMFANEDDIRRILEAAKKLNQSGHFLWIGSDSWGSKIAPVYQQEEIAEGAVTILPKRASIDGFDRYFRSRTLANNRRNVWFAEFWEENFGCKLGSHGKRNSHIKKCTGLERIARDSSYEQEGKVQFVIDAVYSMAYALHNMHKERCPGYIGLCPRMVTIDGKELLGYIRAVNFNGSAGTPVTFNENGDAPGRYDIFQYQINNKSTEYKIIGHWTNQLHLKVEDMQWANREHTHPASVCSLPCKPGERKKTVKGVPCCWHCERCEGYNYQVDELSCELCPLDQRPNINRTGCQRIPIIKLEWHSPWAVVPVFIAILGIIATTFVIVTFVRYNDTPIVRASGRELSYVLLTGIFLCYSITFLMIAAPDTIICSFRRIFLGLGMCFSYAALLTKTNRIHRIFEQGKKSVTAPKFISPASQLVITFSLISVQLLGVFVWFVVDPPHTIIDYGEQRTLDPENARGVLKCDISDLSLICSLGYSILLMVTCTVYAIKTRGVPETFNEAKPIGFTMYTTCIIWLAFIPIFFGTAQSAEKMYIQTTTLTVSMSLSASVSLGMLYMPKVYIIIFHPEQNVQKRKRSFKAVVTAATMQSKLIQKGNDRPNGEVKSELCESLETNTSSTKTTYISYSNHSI

SMILES	z-score
COc1ccc(OC)c(-c2c[n+](=O)c3c(n2[O-])CCCC3)c1	0.0184
CC(C)CC(=O)Nc1ccc(N2CCOCC2)cc1	0.0722
Cc1cccn2c(=O)c3cc(C(=O)NCCCN4CCCC4=O)n(C)c3nc12	-0.153
CCSc1nc2ccccc2n1CCC(=O)O	-0.625
COc1cc(/C=N/OCC(=O)Nc2cc(C)cc(C)c2)ccc1OCc1ccc(Cl)cc1	-0.106
CCOc1cc(/C=N/N=C(N)N)ccc1OCc1ccc(Cl)cc1	0.11
C=CCn1c(N)nc2ccccc21	1.26
CCOC(=O)c1ccc(N/C=C\C(=O)c2cccc(OC)c2)cc1	0.419
Cc1cc([N+](=O)[O-])ccc1NCc1cccc2ccccc12	-0.178
CCOC(=O)C1C(=O)NC(N2CCN(c3ccccc3)CC2)=NC1c1ccco1 (configuration not stated)	-0.38
Cn1c(C(=O)OC(C(=O)NC2CCCCC2)c2ccncc2)cc2sccc21 (configuration not stated)	-1.25
COc1ccc(NC(=O)c2ccc(COCC(F)(F)C(F)F)cc2)cc1OC	-0.242
O=C(NCCc1c[nH]c2ccccc12)C1CCN(c2nnc(N3CCCC3=O)s2)CC1	0.757
Cc1cc(C(=O)NNC(=O)CCCCC(=O)NNC(=O)c2cc(C)[nH]n2)n[nH]1	-0.204
COc1cc(C(=O)Nc2sc(C(=O)N3CCOCC3)c(C)c2C#N)cc(OC)c1OC	0.197
CCOC(=O)C1C(=O)NC(c2ccccc2)=NC1c1ccc(F)cc1 (configuration not stated)	-0.221
COc1ccc(/C(C)=N/NC(=O)c2nc(C)cc(C)n2)cc1	-0.255
CCC(C)c1ccc(O)c(NC(=O)c2ncn[nH]2)c1 (configuration not stated)	-0.374
O=C(NCCOc1ccccc1)c1ncn[nH]1	0.26
CCCCNC(=O)CC1N=C2c3ccccc3N=C(SCC(=O)Nc3ccc(OC)cc3)N2C1=O (configuration not stated)	-0.38
COC(=O)N/N=C1\CCCc2ccccc21	-0.137
CC(C)Cc1nc2sc3c(NCc4ccco4)ncnc3c2c2c1COC(C)(C)C2	-0.213

SMILES	z-score
c1ccc2c(CNCCN3CCOCC3)cccc2c1	-0.0436
COc1ccc(S(=O)(=O)N2Cc3ccccc3CC2C(=O)Nc2ccc3c(c2)OCO3)cc1 (configuration not stated)	-0.22
CCOc1cc(CNCCO)cc(Br)c1OCc1ccc(Cl)cc1Cl	1.36
Cc1cc(C)c(C(N)=O)c(Nc2cccc(Cl)c2)n1	0.431
COc1ccccc1-n1c(CNC(=O)COc2ccccc2)n[nH]c1=S	2.71
Cc1ccc(/C=C(\NC(=O)c2ccccc2)C(=O)NCCc2ccccn2)o1	-0.269
Cc1ccc(S(=O)(=O)N(C)C)cc1NC(=O)COC(=O)CCC(=O)c1ccc(F)cc1	-0.39
Cc1cc(C)c2c(=O)[nH]c(SCC(=O)Nc3ccc(N(C)C)cc3)nc2n1	-0.244
COC(=O)c1ccc(CSc2nnc(NC(=O)C3CC(=O)N(c4ccc5c(c4)OCCO5)C3)s2)cc1 (configuration not stated)	0.162
CCC(=O)Nc1ccc(Oc2ccc3c(c2)C(=O)N(c2ccc(O)cc2)C3=O)cc1	0.0337
CC(C)C(=O)Nc1cccc(NC(=O)CCN2C(=O)c3ccccc3S2(=O)=O)c1	0.153
CC12CN3CC(C)(CN(C1)C3c1ccc(Br)cc1)C2 (configuration not stated)	-0.0896
COc1ccc(-c2c(C)n([O-])c(C)c(-c3ccccc3)[n+]2=O)cc1OC	0.56
COc1cc(C2=NOC(C(=O)N3CCOCC3)C2)cc(OC)c1OC (configuration not stated)	0.39
Cn1c(/C(C#N)=C(\O)c2ccc(S(=O)(=O)N3CCCCC3)cc2)nc2ccccc21	0.135
CC(=O)c1cccc(NC(=S)NCCC2=CCCCC2)c1	0.756
CCn1nc(C(=O)NNC(=O)COc2ccccc2C)c2ccccc2c1=O	0.345
O=C(NCc1ccc(F)cc1)c1ccc(CS(=O)(=O)Cc2ccccc2F)o1	0.438
COc1ccc(C(=O)N/N=C2\SCC(=O)N2Cc2ccc3c(c2)OCO3)c(OC)c1	0.801
CCCCCCCNC(=O)C1CC(=O)N(C)C(=Nc2ccc(OC)cc2)S1 (configuration not stated)	-0.279
CCCn1c(/N=C/c2cc(OC)ccc2O)nc2ccccc21	0.454
CC(=O)Nc1ccc(S(=O)(=O)N2CCN(c3cc(C)nc4ccccc34)CC2)cc1	0.498

SMILES	z-score
COc1ccc(S(=O)(=O)N2CCC(C(=O)N3CCc4ccccc4C3)CC2)cc1Cl	-0.216
CCOC(=O)CSc1nnc(-c2ccccc2)o1	-1.23
CCn1c(=O)cc(N2CCC3(CC2)OCCO3)[nH]c1=O	0.0392
Cn1cc(S(=O)(=O)CC(=O)Nc2ccc(Br)cc2)c2ccccc21	-0.0267
CCNC(=S)NNC(=O)c1ccoc1C	-0.0856
CCOC(=O)c1sc(NC(=O)CSc2nccc(C)n2)c(C#N)c1C	-0.249
COc1cccc(N2C(=O)C3CC=C(Cl)CC3C2=O)c1 (configuration not stated)	0.379
O=C(NCc1ccc(F)cc1)c1cnn2ccccc12	-0.256
O=C(NCc1cccnc1)/C(=C\c1ccc(-c2ccc(Br)cc2)o1)S(=O)(=O)c1ccccc1	-0.233
Cc1csc(NC(=O)c2ccoc2C)n1	1.57
COc1ccccc1N(CC(=O)Nc1ccccc1C(=O)NC(C)C)S(C)(=O)=O	-0.955
CCN(c1ccccc1)S(=O)(=O)c1cc(C(=O)O)ccc1C	-1.39
CCc1sc(C(=O)NC)cc1Br	0.0282
c1csc(-c2nnc(Cc3cccc4ccccc34)o2)c1	-0.022
Cc1ccc(C)c(NC(=S)N=Nc2c(O)n(C)c3ccc(S(=O)(=O)N4CCOCC4)cc23)c1	active: 4.13
Cc1ccc(C)c(N2CCN(C(=O)C3CCN(c4nnc(N5CCCC5=O)s4)CC3)CC2)c1	-0.306
Cc1cccc(NC(=O)C2C(C(=O)O)C3C=CC2C32CC2)c1C (configuration not stated)	-0.389
O=C1c2ccccc2C(=O)N1CC1c2ccccc2CCN1C(=O)C1CCCCC1 (configuration not stated)	-0.696
O=C(c1ccccc1)N1CCN(C(=S)NCCc2ccccc2)CC1	-0.236
COC(=O)c1ccc(Cl)c(NC(=O)CN2CCN(C)CC2)c1	active: 4.17
O=C(CSc1nc2ccccc2c(=O)n1-c1ccc(F)cc1)Nc1ccc(N2CCOCC2)cc1	-0.000577
O=[N+]([O-])c1cc(-c2nnc(Nc3ccccc3)c3ccccc23)ccc1N1CCOCC1	-0.434

SMILES	z-score
COCCCN(C(=S)Nc1cc(C)cc(C)c1)C(C)c1ccncc1 (configuration not stated)	0.0403
O=C(Nc1ccccc1)N(Cc1cccnc1)Cc1ccco1	-0.311
CCn1c(SC)nc(O)c(C(c2ccc(OC)c(O)c2)c2c(O)nc(SC)n(CC)c2=O)c1=O	0.358
CCC1(C)Cc2ccccc2-c2nc(NCCO)n(-c3ccc(C)cc3)c(=O)c21 (configuration not stated)	-0.864
O=C(CN1CCN(c2ccccn2)CC1)N1c2ccccc2Sc2ccc(C(F)(F)F)cc21	-0.136
NS(=O)(=O)c1ccc(CCNC(=O)C(=O)c2c[nH]c3ccccc23)cc1	-0.3
CS(=O)(=O)Nc1ccc(C(=O)NCCC2=CCCCC2)cc1	1.28
Cn1c(=O)c2c(SC3CCCC3)nc(CC(C)(C)C)nc2n(C)c1=O	-1.66
Cc1cccc(C)c1OCc1nnc(SCC(=O)Nc2ccccc2F)o1	0.69
C#CCN1C(=O)C(O)(CC(=O)c2cc(OC)ccc2OC)c2ccccc21 (configuration not stated)	0.241
COc1ccc(Cc2c(N)nc(N)nc2N)cc1	-0.264
CCOC(=O)Cc1c(C)nc2c(C#N)c[nH]n2c1=O	-0.0481
COCCCn1c(Cc2csc(Nc3ccc(F)cc3)n2)nnc1SCC(N)=O	-0.304
Cc1cccc(CSc2nc3sc(C)c(C)c3c(=O)n2Cc2ccco2)c1	0.131
CCOc1ccc(-n2c(SCc3cc(=O)oc4cc(C)ccc34)nnc2-c2cccnc2)cc1	-0.153
CCS(=O)(=O)N1Cc2ccccc2CC1C(=O)Nc1nc2ccccc2s1 (configuration not stated)	1.5
CC(=O)Nc1ccc(NC(=O)C2CCCN(c3ncccn3)C2)cc1 (configuration not stated)	-1.02
CCCOc1ccc(C(=O)O/N=C(\CC)c2ccc(C)cc2)cc1	-0.321
COC(=O)c1ccc(/C=N/Nc2nc(-c3ccc(C)cc3)cs2)cc1	-0.105
COc1c(C)cc(Br)cc1C(=O)Nc1cccc(-c2nc3ncccc3o2)c1	-0.243
CCC(OC(=O)CC1Sc2ccccc2NC1=O)C(=O)NCC1CCCO1 (configuration not stated)	-0.994
COc1ccc(C2CC(=O)c3sc(N)nc3C2)cc1 (configuration not stated)	-0.151

SMILES	z-score
CC(C)(C)n1nnnc1C(c1cccs1)N(Cc1ccccc1)Cc1ccco1 (configuration not stated)	-1.24
O=C(CSc1nc2ccccc2c(=O)n1Cc1ccc(Cl)cc1)NCc1cccs1	1.32
CC(O)Cn1ccccc1=N (configuration not stated)	0.218
Cc1nc2nc(-c3cccnc3)[nH]n2c(=O)c1Cc1ccccc1	-0.434
CCNc1nc(NCC)nc(ON=C(C)C)n1	0.138
Cc1ccc(-c2nn(CC(N)=O)c(=O)c3ccccc23)cc1S(=O)(=O)N(C)C	-0.319
CN(C)C(=O)C(=O)c1c(-c2ccccc2)cc2ccccn12	-0.294
COc1cccc(N2CCN(C(=O)c3ccc4nc(N5CCCCC5)sc4c3)CC2)c1	-1.14
COc1ccc(CNC(=O)CCn2c(=O)oc3ccccc32)cc1	-0.258
COc1ccc(C2C(C(=O)OCC(=O)Nc3ccc(C)cc3)CCC(=O)N2c2ccc(OC)cc2)cc1 (configuration not stated)	-0.174
COc1ccc(C2C3=C(CC(C)(C)CC3=O)Nc3c2c(=O)[nH]c(=O)n3Cc2ccccc2)cc1 (configuration not stated)	0.962
O=C(/C=C/c1ccc(Br)cc1)c1ccc(NC2=NCCCS2)cc1	0.158
CCN(CC)CCNC(=O)C1c2cc(OC)c(OC)cc2C(=O)N2CCc3ccccc3C12 (configuration not stated)	0.134
CC(C)(C)n1nnnc1C(c1cccnc1)N1CCN(c2cccc(C(F)(F)F)c2)CC1 (configuration not stated)	0.0219
O=C(NCCCN1CCN(c2ccccc2)CC1)Nc1ccccc1C(F)(F)F	-0.506
Cc1ccccc1NC(=O)c1ccccc1NC(=O)c1ccco1	-0.398
CCN1CCN(CC(=O)Nc2ccc3c(c2)OCO3)C(=O)C1=O	-0.147
Cc1nc(OCc2ccccc2)c2sc3nc4c(cc3c2n1)COC(C)(C)C4	-0.478
CCOC(=O)C1=NNC2(c3ccc(C)cc3)C(=O)N(c3ccc(Cl)cc3)C(=O)C12 (configuration not stated)	-0.0348
